These results are taken from EP4563146A1 (IRBM S.P.A., priority 2023, dated 2025).

A value given as a limit tells only on which side of the number the result lay.

One assay has as its target ZIKV NS2B-G4SG4-NS3 serine protease (Zika virus, UniProt A0A024B7W1, R1467A/R1531G). As to the kind of experiment: ZIKV protease inhibition assay. The format is biochemical.
Details: not given
In turn, `Cc1ncncc1[C@H]1CC[C@H](C[n+]2cc([N-]C(=O)Nc3ccnc(C(F)(F)F)c3)on2)CC1` [Example 241, (3-(((1R,4S)-4-(4-Methylpyrimidin-5-yl)cyclohexyl)methyl)-1,2,3-oxadiazol-3-ium-5-yl)((2-(trifluoromethyl)pyridin-4-yl)carbamoyl)-amide] came in with an IC50 of 100 to 1000 nM.
For the compound `NC[C@H]1CC[C@@H]([n+]2cc([N-]C(=O)Nc3cc(NC(=O)Cc4ccccc4)cc(C(F)(F)F)c3)on2)CC1` [Example 59, (3-((1S,4S)-4-(Aminomethyl)cyclohexyl)-1,2,3-oxadiazol-3-ium-5-yl)((3-(2-phenyl-acetamido)-5-(trifluoromethyl)phenyl)-carbamoyl)amide], the IC50 is less than 100 nM.
Turning to `O=C([N-]c1c[n+](C[C@H]2CC[C@H](NC(=O)C(F)(F)F)CC2)no1)Nc1cc(N2CC[C@H](c3ccccc3)C2=O)cc(C(F)(F)F)c1` [Example 145, ((3-((R)-2-Oxo-3-phenylpyrrolidin-1-yl)-5-(trifluoromethyl)phenyl)carbamoyl)(3-(((1R,4R)-4-(2,2,2-trifluoroacetamido)cyclohexyl)methyl)-1,2,3-oxadiazol-3-ium-5-yl)amide], the IC50 lay within 100 to 1000 nM.
`CNC(=O)[C@H]1CC[C@H]([n+]2cc([N-]C(=O)Nc3cc(NC(=O)Cc4ccccc4C)cc(C(F)(F)F)c3)on2)CC1` [Example 251, rac-(3-((1R,4R)-4-(Methylcarbamoyl)-cyclohexyl)-1,2,3-oxadiazol-3-ium-5-yl)((3-(2-(o-tolyl)acetamido)-5-(trifluoromethyl)phenyl)-carbamoyl)amide]: the IC50 was 100 to 1000 nM.
On the same count and under the same terms, the value for `CN(C)C[C@H]1CC[C@H]([n+]2cc([N-]C(=O)Nc3cc(NC(=O)Cc4ccccc4O)cc(C(F)(F)F)c3)on2)CC1` [Example 191, (3-((1R,4R)-4-((Dimethylamino)methyl)-cyclohexyl)-1,2,3-oxadiazol-3-ium-5-yl)((3-(2-(2-hydroxyphenyl)acetamido)-5-(trifluoromethyl)-phenyl)carbamoyl)amide] was less than 100 nM; that for `O=C([N-]c1c[n+](C[C@H]2CC[C@@H](c3cncnc3)CC2)no1)Nc1ccnc(C(F)(F)F)c1` [Example 182, (3-(((1S,4S)-4-(Pyrimidin-5-yl)cyclohexyl)methyl)-1,2,3-oxadiazol-3-ium-5-yl)((2-(trifluoromethyl)pyridin-4-yl)carbamoyl)amide] was 1000 to 20000 nM; that for `CN(C)C[C@H]1CC[C@H]([n+]2cc([N-]C(=O)Nc3cc(NC(=O)C(F)(F)CN4CCCC4)cc(C(F)(F)F)c3)on2)CC1` [Example 160, ((3-(2,2-Difluoro-3-(pyrrolidin-1-yl)propanamido)-5-(trifluoromethyl)phenyl)-carbamoyl)(3-((1R,4R)-4-((dimethylamino)-methyl)cyclohexyl)-1,2,3-oxadiazol-3-ium-5-yl)amide] was 1000 to 20000 nM.
On the same count and under the same terms, the value for `CN(C)C[C@H]1CC[C@H]([n+]2cc([N-]C(=O)Nc3cc(N4CCC(c5ccccc5)C4=O)cc(C(F)(F)F)c3)on2)CC1` (stereo partly drawn) [Example 148, (3-((1R,4R)-4-((Dimethylamino)methyl)-cyclohexyl)-1,2,3-oxadiazol-3-ium-5-yl)((3-(2-oxo-3-phenylpyrrolidin-1-yl)-5-(trifluoromethyl)-phenyl)carbamoyl)amide] was 100 to 1000 nM; that for `N[C@H]1CC[C@@H](C[n+]2cc([N-]C(=O)Nc3cc(N4CCC(c5ccccc5)C4=O)cc(C(F)(F)F)c3)on2)CC1` (stereo partly drawn) [Example 131, (3-(((1S,4S)-4-Aminocyclohexyl)methyl)-1,2,3-oxadiazol-3-ium-5-yl)((3-(2-oxo-3-phenylpyrrolidin-1-yl)-5-(trifluoromethyl)-phenyl)carbamoyl)amide] was 100 to 1000 nM; that for `Cc1ccccc1CC(=O)Nc1cc(NC(=O)[N-]c2c[n+]([C@H]3CC[C@H](C(C)(C)O)CC3)no2)cc(C(F)(F)F)c1` [Example 206, (3-((1R,4R)-4-(2-Hydroxypropan-2-yl)cyclohexyl)-1,2,3-oxadiazol-3-ium-5-yl)((3-(2-(o-tolyl)acetamido)-5-(trifluoromethyl)phenyl)-carbamoyl)amide] was less than 100 nM.
`O=C([N-]c1c[n+]([C@H]2CC[C@@H](CNCC(F)(F)F)CC2)no1)Nc1cc(N2CCC(c3ccccc3)C2=O)cc(C(F)(F)F)c1` (stereo partly drawn) [Example 135, ((3-(2-Oxo-3-phenylpyrrolidin-1-yl)-5-(trifluoromethyl)phenyl)carbamoyl)(3-((1S,4S)-4-(((2,2,2-trifluoroethyl)amino)methyl)-cyclohexyl)-1,2,3-oxadiazol-3-ium-5-yl)amide] came in with an IC50 of 100 to 1000 nM.
`CN(CC(F)(F)F)[C@H]1CC[C@H](C[n+]2cc([N-]C(=O)Nc3cc(N4CC[C@H](c5ccccc5)C4=O)cc(C(F)(F)F)c3)on2)CC1` [Example 146, (3-(((1R,4R)-4-(Methyl(2,2,2-trifluoroethyl)-amino)cyclohexyl)methyl)-1,2,3-oxadiazol-3-ium-5-yl)((3-((R)-2-oxo-3-phenylpyrrolidin-1-yl)-5-(trifluoromethyl)phenyl)carbamoyl)amide] showed an IC50 of less than 100 nM.
Turning to `CN(C)C[C@H]1CC[C@H]([n+]2cc([N-]C(=O)Nc3cc(NC(=O)Cc4cccc(Cl)c4)cc(C(F)(F)F)c3)on2)CC1` [Example 176, ((3-(2-(3-Chlorophenyl)acetamido)-5-(trifluoromethyl)phenyl)carbamoyl)(3-((1R,4R)-4-((dimethylamino)methyl)cyclohexyl)-1,2,3-oxadiazol-3-ium-5-yl)amide], the IC50 lay within 100 to 1000 nM.
Same read-out and setting: the value for `CN(C)C[C@H]1CC[C@H]([n+]2cc([N-]C(=O)Nc3cc(NC(=O)Cc4cccc(CC(N)=O)c4)cc(C(F)(F)F)c3)on2)CC1` [Example 162, ((3-(2-(3-(2-Amino-2-oxoethyl)phenyl)-acetamido)-5-(trifluoromethyl)phenyl)-carbamoyl)(3-((1R,4R)-4-((dimethylamino)-methyl)cyclohexyl)-1,2,3-oxadiazol-3-ium-5-yl)amide] was 100 to 1000 nM.
In the case of `CN(C)C[C@H]1CC[C@H]([n+]2cc([N-]C(=O)Nc3cc(NC(=O)Cc4c(F)cccc4Cl)cc(C(F)(F)F)c3)on2)CC1` [Example 198, ((3-(2-(2-Chloro-6-fluorophenyl)acetamido)-5-(trifluoromethyl)phenyl)carbamoyl)(3-((1R,4R)-4-((dimethylamino)methyl)cyclohexyl)-1,2,3-oxadiazol-3-ium-5-yl)amide], the IC50 is less than 100 nM.
The same measure, in the same setting: the value for `CN(C)C[C@H]1CC[C@H]([n+]2cc([N-]C(=O)Nc3cc(NC(=O)Cc4ccccc4Cl)nc(C(F)(F)F)c3)on2)CC1` [Example 193, ((2-(2-(2-Chlorophenyl)acetamido)-6-(trifluoromethyl)pyridin-4-yl)carbamoyl)(3-((1R,4R)-4-((dimethylamino)methyl)-cyclohexyl)-1,2,3-oxadiazol-3-ium-5-yl)amide] was 100 to 1000 nM; that for `Cc1noc(C)c1CC(=O)Nc1cc(NC(=O)[N-]c2c[n+]([C@H]3CC[C@H](CN(C)C)CC3)no2)cc(C(F)(F)F)c1` [Example 197, (3-((1R,4R)-4-((Dimethylamino)methyl)-cyclohexyl)-1,2,3-oxadiazol-3-ium-5-yl)((3-(2-(3,5-dimethylisoxazol-4-yl)acetamido)-5-(trifluoromethyl)phenyl)carbamoyl)amide] was 100 to 1000 nM.

Still in this assay, the particulars now being: 1.25 nM enzyme, 10 µM Bz-Nle-KRR-AMC substrate, 25 °C; read-out: Zika - NS3 protease.
For `Cc1ccccc1CC(=O)Nc1cc(NC(=O)[N-]c2c[n+]([C@H]3CC[C@H](CN(C)C)CC3)no2)cc(C(F)(F)F)c1` [Example 171, (3-((1R,4R)-4-((Dimethylamino)methyl)-cyclohexyl)-1,2,3-oxadiazol-3-ium-5-yl)((3-(2-(o-tolyl)acetamido)-5-(trifluoromethyl)phenyl)-carbamoyl)amide], the IC50 is less than 100 nM.
Still for that read-out and setting: the value for `CN(C)C[C@H]1CC[C@H]([n+]2cc([N-]C(=O)Nc3cc(NC(=O)CCc4cn(C)c5ccccc45)cc(C(F)(F)F)c3)on2)CC1` [Example 157, (3-((1R,4R)-4-((Dimethylamino)methyl)-cyclohexyl)-1,2,3-oxadiazol-3-ium-5-yl)((3-(3-(1-methyl-1H-indol-3-yl)propanamido)-5-(trifluoromethyl)phenyl)carbamoyl)amide] was less than 100 nM; that for `CN(C)CC1CCC([n+]2cc([N-]C(=O)Nc3cc(NC(=O)CCc4cnccn4)cc(C(F)(F)F)c3)on2)CC1` [Example 158, (3-((1R,4R)-4-((Dimethylamino)methyl)-cyclohexyl)-1,2,3-oxadiazol-3-ium-5-yl)((3-(3-(pyrazin-2-yl)propanamido)-5-(trifluoromethyl-)phenyl)carbamoyl)amide] was greater than 20000 nM.

The same assay, now with this note: read-out: Zika - NS3 protease; 1.25 nM enzyme, 10 µM Bz-Nle-KRR-AMC substrate, 25 °C.
Turning to `O=C([N-]c1c[n+](Cc2ccccn2)no1)Nc1cc(NC(=O)C23CCC(O)(CC2)C3)cc(C(F)(F)F)c1` [Example 66], the IC50 is 100 to 1000 nM.
On the same count and under the same terms, the value for `O=C([N-]c1c[n+](Cc2ccccn2)no1)Nc1cc(NC(=O)c2cc3n(n2)CCS(=O)(=O)C3)cc(C(F)(F)F)c1` [Example 64] was 100 to 1000 nM; that for `O=C(Cc1ccccc1)Nc1cc(NC(=O)[N-]c2c[n+](CC3CCNCC3)no2)cc(C(F)(F)F)c1` [Example 120] was less than 100 nM.
As for `COc1ncc(-c2ccc(C[n+]3cc([N-]C(=O)Nc4cc(NC(=O)CC5CCCCC5)cc(C(F)(F)F)c4)on3)cc2)c(C)n1` [Example 8], the IC50 is less than 100 nM.
On the same count and under the same terms, the value for `O=C([N-]c1c[n+](Cc2ccccn2)no1)Nc1cc(NC(=O)C2CCCC3(CCOC3)O2)cc(C(F)(F)F)c1` (stereo not drawn) [Example 84] was 100 to 1000 nM; that for `COc1ncc(-c2ccc(C[n+]3cc([N-]C(=O)Nc4cc(NC(C)=O)cc(C(F)(F)F)c4)on3)cc2)c(C)n1` [Example 11] was less than 100 nM; that for `O=C([N-]c1c[n+](Cc2ccccn2)no1)Nc1cc(NC(=O)C2CC2c2ccccc2)cc(C(F)(F)F)c1` (stereo not drawn) [Example 50] was less than 100 nM.
With `O=C(CS(=O)(=O)c1ccccc1)Nc1cc(NC(=O)[N-]c2c[n+](Cc3ccccn3)no2)cc(C(F)(F)F)c1` [Example 43], the IC50 was less than 100 nM.
On to `CC(C(=O)Nc1cc(NC(=O)[N-]c2c[n+](Cc3ccccn3)no2)cc(C(F)(F)F)c1)c1ccccc1` (stereo not drawn) [Example 32], for which the IC50 was less than 100 nM.
`Cn1ccc(CC(=O)Nc2cc(NC(=O)[N-]c3c[n+](Cc4ccccn4)no3)cc(C(F)(F)F)c2)n1` [Example 40]: the IC50 fell in the range of 1000 to 20000 nM.
